The results in this text go back to PubChem BioAssay AID488969 (Vanderbilt High Throughput Screening Facility, 2010).

In all, about 110,000 compounds were measured (“z-score”: median about -0.1, highest 2% from about 2 on). This is one part of the list. Calls of active or inactive are those of the source.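 How the source made its calls: active means z-score in the third read window above 3 or below -3; inactive means the rest.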

This assay concerns the target Metabotropic glutamate receptor 8 (Rattus norvegicus) (UniProt P70579). Kind of assay: rat mGluR8 modulators via GIRK flux, primary screen, cell-based, thallium flux, HTS (AID 488969). As to conditions: HEK293 rat mGluR8, GIRK (G protein-gated inwardly rectifying potassium channel) thallium flux, FluoZin2; at 10 µM; stronger effect = higher value; submaximal glutamate (EC20) added with thallium.
UniProt P70579, sequence (P70579 whole entry, looked up): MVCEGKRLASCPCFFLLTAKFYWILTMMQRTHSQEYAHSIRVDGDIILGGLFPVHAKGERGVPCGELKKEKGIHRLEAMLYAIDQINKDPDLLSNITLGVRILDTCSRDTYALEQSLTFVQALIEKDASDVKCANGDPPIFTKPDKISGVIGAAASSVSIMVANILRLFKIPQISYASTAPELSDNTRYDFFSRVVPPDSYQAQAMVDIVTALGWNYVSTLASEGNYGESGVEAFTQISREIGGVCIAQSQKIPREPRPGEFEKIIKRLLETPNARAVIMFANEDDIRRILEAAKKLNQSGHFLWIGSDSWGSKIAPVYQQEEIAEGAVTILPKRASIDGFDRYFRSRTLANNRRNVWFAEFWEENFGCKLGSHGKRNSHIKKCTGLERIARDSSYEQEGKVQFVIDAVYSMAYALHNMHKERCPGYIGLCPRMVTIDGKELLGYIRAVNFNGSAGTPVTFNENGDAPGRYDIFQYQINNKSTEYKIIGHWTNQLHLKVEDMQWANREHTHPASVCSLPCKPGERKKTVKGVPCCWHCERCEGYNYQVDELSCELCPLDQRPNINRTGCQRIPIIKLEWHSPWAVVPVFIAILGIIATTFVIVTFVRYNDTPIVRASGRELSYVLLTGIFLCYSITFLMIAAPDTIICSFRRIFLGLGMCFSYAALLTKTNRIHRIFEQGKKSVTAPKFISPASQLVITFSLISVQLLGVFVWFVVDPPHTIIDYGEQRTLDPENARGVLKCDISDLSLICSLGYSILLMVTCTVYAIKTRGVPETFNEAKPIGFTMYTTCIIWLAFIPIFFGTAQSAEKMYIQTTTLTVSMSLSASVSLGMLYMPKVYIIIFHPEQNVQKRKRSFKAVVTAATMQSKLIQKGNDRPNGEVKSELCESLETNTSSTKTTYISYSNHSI
In the case of `CC(C)(C)c1nnc(NC(=O)c2cc(-c3ccccc3)nc3ccccc23)s1`, the z-score was -0.432. As for `CCCNC(=O)Cc1c(OC)ccc2cc(Br)ccc12`, the figure is 0.421; as for `Clc1ccc(-c2cc(CSc3cccc(Cl)c3)on2)cc1`, -0.234. As for `O=C(c1cc2cc(Br)cc(Br)c2oc1=O)N1CCCC1`, the figure is -0.0504; as for `COc1ccc2cc(C(=O)Nc3ccccc3)sc(=O)c2c1OC`, active: 4.25; as for `COc1ccccc1NC(=O)COc1cc(C)nc(C(C)C)n1`, -0.0151. As for `COC(=O)COc1ccc(S(=O)(=O)N2CCN(c3ccc(F)cc3)CC2)cc1`, the figure is 0.0507. For the compound `CCOC(=O)C1=C(N)OC2=C(C(=O)CC(C)(C)C2)C1c1ccccc1OCC#N` (stereo not drawn), the z-score was -0.157. As for `COc1ccc2nc(-n3c(C)ccc3C)sc2c1`, the figure is -0.0693. In the case of `Cc1cccc(NS(=O)(=O)c2cc(OCC(N)=O)c(C)cc2Cl)c1` it was -0.0781; in that of `O=C(O)C1CCCCC1C(=O)NCCc1ccncc1` (stereo not drawn), 0.277. In the case of `CCc1cccc2c1NC(=O)C21N2CCCC2C(C(=O)c2ccc3ccccc3c2)C12C(=O)Nc1ccccc12` (stereo not drawn) it was -0.259. `CC(=O)c1c(C)[nH]c(C(=O)Nc2ccc(C)c(C)c2)c1C` registered a z-score of 0.0111. As for `N/C(Cc1ccc(Cl)cc1Cl)=N\OC(=O)c1cccs1`, the figure is -0.117; as for `O=C(CCn1c(=O)oc2ccccc21)NCc1cccs1`, 0.479.

On to `Cc1ccccc1S(=O)(=O)Cc1ccc(C(=O)O)o1`, for which the z-score turned out to be 0.122. Compound `Cc1ccc(CNC(=O)C(Cc2ccccc2)NS(=O)(=O)c2ccc3c(c2)CCC(=O)N3)cc1` (stereo not drawn) gave a z-score of 0.0976. In the case of `CCc1nc2ccccc2c(C(=O)OCC(=O)NCc2ccc3c(c2)OCO3)c1C` it was -1.06. As for `Cc1ccc(-n2nnnc2SCC(=O)Nc2ccc3c(c2)OCCO3)cc1C`, the figure is -0.189. In the case of `O=C(c1ccco1)N1CCN(S(=O)(=O)N2CCOCC2)CC1` it was 0.61. `Cc1ccc(OCc2nnc(SCC(=O)C(C)(C)C)n2Cc2ccco2)cc1` displayed a z-score of -0.302. As for `CCN1C(=O)/C(=C/c2cccs2)N(C)C1=S`, the figure is 0.114; as for `CC1C(=O)NN=C1C(=O)N/N=C\c1ccc(O)cc1O` (stereo not drawn), 0.0728; as for `O=C1C(=Cc2ccc(Br)o2)C(=O)c2ccccc21`, -0.617. Compound `O=C(CSc1nnnn1C1CCCC1)Nc1cccc(NC(=O)c2ccco2)c1` returned a z-score of -0.447. As for `COc1cc(NC(=O)c2ccc3c(c2)OCO3)c2ncccc2c1`, the figure is -0.168; as for `CSCCC(NC(=O)c1ccccc1Br)C(=O)Nc1ccc(C)cc1` (stereo not drawn), 0.239.

`Cc1oc(C2CC2)cc1C(=O)O` displayed a z-score of 0.166.

`CCC(C)N(CCNC(=O)CC1Oc2ccc(C)cc2NC1=O)C1CCCCC1` (stereo not drawn): the z-score is -0.668.

`CCOc1ccc(-n2c(C)nc3cc(C(=O)NCCCN4CCOCC4)ccc32)cc1` yielded a z-score of 0.443. In the case of `Cc1ccc(OCC(=O)NNC(=O)CSc2ncc(C#N)c(N)n2)cc1` it was 0.231; in that of `O=C(CCN1C(=O)COc2ccccc21)NCCN1CCN(c2cccc(Cl)c2)CC1`, -0.0789. In the case of `O=C(CCNC(=O)c1ccccc1Cl)NCC12CC3CC(CC(C3)C1)C2` it was -0.16. In the case of `O=C(NCc1cccnc1)c1cc(-c2cccs2)on1` it was -0.198; in that of `CCCCn1c(/C=C/c2ccco2)nc2ccccc21`, 0.0625.

`Nn1c(SCC(=O)NCCC2=CCCCC2)nnc1C(F)(F)F` had a z-score of -0.303. In the case of `COc1cc(OC)c(-c2c3cc(O)c(=O)cc-3oc3cc(O)c(O)cc23)cc1OC` it was -2.48.

For `O=C(NC1CCCCC1)N(C1=NCCCCC1)c1ccc(Br)cc1`, the z-score was -0.204. As for `CCCc1[nH]nc2c1C(C1CCCCC1)C(C#N)=C(N)O2` (stereo not drawn), the figure is -0.14; as for `COc1ccc(OC)c(CCNC(=O)CC2Oc3ccc(C)cc3NC2=O)c1` (stereo not drawn), -0.53; as for `CC(C)CCNC(=O)CCNS(=O)(=O)c1ccc(Cl)cc1`, -0.225. As to `Cc1cc(Cn2ccnc2)c(C)cc1Cn1ccnc1`, the z-score was found to be 0.233. `CCOC(=O)c1cnn(-c2ccccc2)c1NC(=O)c1ccc(C)cc1` returned a z-score of -0.297.

The compound `CCc1sc(C(=O)Nc2ccc(NC(C)=O)cc2)cc1C` came in with a z-score of -0.655. In the case of `CC(C)N(Cc1nc(-c2ccc(Cl)cc2)no1)C(=O)C12CC3CC(CC(C3)C1)C2` it was 0.312; in that of `Cc1ccnc(NS(=O)(=O)c2ccc(N)cc2)n1`, -0.063; in that of `COC(=O)c1ccc(OCCOc2ccccc2)cc1`, 0.0331.

With `Cn1c(N/N=C/c2c[nH]c3ccccc23)nc2ccccc21`, the z-score was -0.161. In the case of `O=C(O)CCn1c(=O)[nH]c2ccccc2c1=O` it was 0.0893; in that of `Cn1c(C(=O)O)c(CC(=O)Nc2ccc(F)cc2F)c2ccccc21`, -0.847. In the case of `COC(=O)NNC(=O)COc1ccccc1C` it was -0.341; in that of `CCCCn1nc(NC(=O)c2cccs2)c2cc3ccccc3nc21`, -0.605. As for `COc1ccc([C@@H]2[C@@H](C(=O)C(C)(C)C)N3N=Cc4ccccc4[C@@H]3C23C(=O)OC(C)(C)OC3=O)cc1OC`, the figure is -0.146; as for `COc1ccc(NC(=O)N2CCc3ccccc32)cc1`, 0.323; as for `Cc1cccn2c(=O)c(/C=C(\C#N)S(=O)(=O)c3ccccc3)c(Oc3ccc(Cl)cc3)nc12`, -0.262.

`CC(=O)C1C(c2cn(-c3ccccc3)nc2-c2cccs2)NC(=O)NC1(O)C(F)(F)F` (stereo not drawn) yielded a z-score of -0.165. As for `O=C1/C(=C/c2ccccc2)CSc2sccc21`, the figure is -0.212. As for `O=C(CSc1nnc(CNc2cccc(Cl)c2)o1)OC1CCCCC1`, the figure is -0.452; as for `CC1CCCC(NC(=O)COC(=O)/C=C/c2ccc3c(c2)OCO3)C1C` (stereo not drawn), -0.0178; as for `CC(=O)Nc1c(C(=O)NCc2ccccc2)nnn1Cc1ccccc1`, 0.153. In the case of `O=C(NNC(=O)C1CCCO1)c1ccccc1Cl` (stereo not drawn) it was 0.018; in that of `CSc1nc2nccc(-c3ccc(Cl)cc3)n2n1`, -1.46; in that of `CCC1c2ccc(C)n2CCN1C(=O)Nc1cc(Cl)ccc1OC` (stereo not drawn), -2.44. On to `COc1cccc2sc(Nc3nnc(-c4cccs4)o3)nc12`, for which the z-score is active: 17.4. For `Cc1onc(-c2ccccc2)c1C(=O)Oc1cccnc1`, the z-score is -0.687. As for `COCc1cc(Sc2ccc(Cl)cc2)nc(-c2ccccc2)n1`, the figure is 0.0284. In the case of `N#Cc1c(NC(=O)CSc2ncn(-c3ccccc3)n2)sc2c1CCCC2` it was -0.866; in that of `Cc1ccccc1OCCNc1cc(N2CCCCC2)ccc1[N+](=O)[O-]`, -0.204. Compound `Cc1cc(/C=N/n2cnnc2)c(C)n1-c1ccc(OCc2ccc(Cl)cc2Cl)cc1` had a z-score of 0.772.

For `Cc1ccc(C(=O)N/C(=C\c2sccc2C)C(=O)NCc2ccco2)cc1`, the z-score is -0.235. In the case of `CCOCCSC1=C(C#N)C(c2cccs2)C(C(C)=O)=C(C)N1` (stereo not drawn) it was -1.52; in that of `OCc1ccccc1N=c1ssnc1Cl`, -0.577; in that of `CCOc1cc(CNCC2CCCO2)cc(Br)c1OCC(N)=O` (stereo not drawn), -0.0404.
